Results as given in PubChem BioAssay (NCATS).
“And” between values parts separate entries of the source, which are not always exact repeats. Identical values can stand only once. The shares of active, inactive and inconclusive entries below differ from those in the screen. Potencies beside an inconclusive call are fits to weak or partial responses and may not hold up. The source made the active and inactive calls. The call rests on the fitted dose curve; in most records, active means well fitted cell-killing curve with a large enough effect; inconclusive means small, poorly fitted or top-dose-only effect; inactive means no such curve, though single readings can be large or run the other way.

Experiment: qHTS of pediatric cancer cell lines to identify multiple opportunities for drug repurposing: Primary screen for A673 cells (AID 1347092); further: nearly all actives have a fitted effect of over 45% in size
Conditions: A673 Ewing sarcoma viability, CellTiter-Glo ATP luminescence, 48 h; activity change, negative = cytotoxic: at 46 µM (top of the series)
Description: Drug repurposing or repositioning has been offered as a strategy for drug development in oncology programs. This approach has special potential for childhood cancers and other rare or orphan diseases, where the expected return on new drug development has been a disincentive to pharmaceuticals. […] In this project we exploit the poly-pharmacology of drugs to discover new indications via phenotypic screening of a panel of 19 well-characterized cell lines derived from solid tumors seen in children and adolescents. The goal is to identify approved drugs with previously unrecognized anticancer properties that has the potential to reveal new mechanisms and biological processes involved in carcinogenesis or drug resistance. We employed a titration-based paradigm (quantitative high-throughput screening or qHTS), where all compounds were tested at multiple concentrations for their effect on cell viability. Concentration-response curves (CRCs) were derived directly from the primary screen, and both potency and efficacy values were used to identify compounds with robust bioactivity profiles. We screened the NIH Chemical Genomics Center (NCGC) Pharmaceutical Collection (NPC) and Mechanism Interrogation Plate (MIPE) small molecule collections of approved and investigational compounds against these cell lines; and measured metabolically active cells after 48 hours of compound treatment as a proxy for cell viability. […] Assay Submitter: Nathalia J. Martinez, National Center for Advancing Translational Sciences, National Institutes of Health, Rockville, MD, USA; email: natalia.martinez@nih.gov. Shen, M et al. Quantitative high-throughput phenotypic screening of pediatric cancer cell lines identifies multiple opportunities for drug repurposing. Oncotarget 2017 Dec 19;9(4):4758-4772. PMID 29435139.
The cells were obtained from University of North Carolina (UNC), Pediatric Preclinical Testing Program (PPT), and Coriell Institute (CI). qHTS cell viability assay: Cells were assayed in growth media at a density of 500-1,000 cells/well. Five microliters of cells were dispensed into 1,536-well, white, solid-bottom, TC-treated plates (Greiner Bio One) using a multidrop dispenser and incubated at 37 degrees C, 5% CO2, under a humidified atmosphere for 5 hours. Twenty-three nanoliters of compounds and controls (neutral control DMSO or positive control bortezomib at final concentration of 2.3 uM) were subsequently transferred by Kalypsys pintool. For primary screens, the MIPE collection was tested at 11-point dilutions (final concentrations range from 0.78 nM to 46 µM) and the NPC collection at 8-point dilutions (final concentrations range from 0.59 nM to 46 µM). Compounds tested in follow-up screens were assayed at 11-point dilutions. Cells were incubated for 48 hours, followed by addition of 3 uL of CellTiter-Glo (Promega). After a 15min incubation at room temperature, samples were analyzed for luminescence intensity using a ViewLux High-throughput CCD imager equipped with clear filters.
On the % scale 0 is the no-effect control and ±100 the full control effect; potency means the concentration at half of the fitted maximal effect; tags describe the fitted curve by direction and shape.

Structure (SMILES) | Potency | activity change, negative = cytotoxic
CNC(=O)c1cc(COc2nnc(Nc3ccc(Cl)cc3)c3ccoc23)ccn1 | inconclusive: 29.6 µM [cytotoxic, single point] | 
Cc1cccc2c1CC[C@H](CN1CCC(c3c(Cl)cccc3Cl)CC1)C[C@@H]2O | inconclusive: 37.2 µM [cytotoxic, single point] | 
Oc1ccc(-c2ccc(-c3cc(Nc4cccc(CNC5CC5)c4)n[nH]3)cc2)c(O)c1 | active: 0.935 µM | 
Cc1nc(Nc2n[nH]c3c2CN(C(=O)N[C@H](CN(C)C)c2ccccc2)C3(C)C)c2sccc2n1 | active: 0.0148 µM | 
O=c1cc(-c2cccc3c2Sc2ccccc2S3)oc(N2CCOCC2)c1 | inconclusive: 23.5 µM [cytotoxic, partial curve] | 
CC1(C)S[C@H]2[C@H](NC(=O)[C@@H](N)c3ccc(O)cc3)C(=O)N2[C@@H]1C(=O)O | active: 0.935 µM | 
Nc1nc2[nH]cc(CCc3ccc(C(=O)N[C@@H](CCC(=O)O)C(=O)O)cc3)c2c(=O)[nH]1 | inconclusive: 0.935 µM [cytotoxic, full curve] | 
CN(C)C(=O)C(CCN1CCC(O)(c2ccc(Cl)cc2)CC1)(c1ccccc1)c1ccccc1 | active: 18.7 µM and inconclusive: 26.6 µM [cytotoxic, single point] | 
CN1C2CCC1CC(OC(=O)C(CO)c1ccccc1)C2 (stereo not given) | inactive | 
C[C@@H](NCCCc1cccc(C(F)(F)F)c1)c1cccc2ccccc12 | inconclusive: 26.6 µM [cytotoxic, single point] | 
NC(=O)c1cnc(-c2ccc(C3(N)CCC3)cc2)c(-c2ccccc2)c1 | inconclusive: 23.5 µM [cytotoxic, partial curve] | 
CO[C@H]1/C=C\O[C@@]2(C)Oc3c(C)c(O)c4c(O)c(c5c(nc6cc(C)ccn65)c4c3C2=O)NC(=O)C(C)=CC=C[C@H](C)[C@H](O)[C@@H](C)[C@@H](O)[C@@H](C)[C@H](OC(C)=O)[C@H]1C | inactive | 
CCC[C@H](N[C@@H](C)C(=O)N1[C@@H]2CCCC[C@H]2C[C@H]1C(=O)O)C(=O)OCC | inconclusive: 3.72 µM [cytotoxic, partial curve, poor fit] | 
Cc1cnc(C(=O)NCCc2ccc(S(=O)(=O)NC(=O)NC3CCCCC3)cc2)cn1 | inconclusive: 9.35 µM [cytotoxic, full curve] | 
Cc1cn([C@@H]2C[C@@H](O)[C@H](CO)O2)c(=O)[nH]c1=O |  | inconclusive: -31.4% [cytotoxic]
COc1nccc(-c2c(-c3ccc(F)cc3)ncn2C2CCNCC2)n1 | inconclusive: 23.5 µM [cytotoxic, partial curve] | 
COc1ccc2nc3cc(Cl)ccc3c(Nc3cc(CN4CCCC4)c(O)c(CN4CCCC4)c3)c2n1 | inconclusive: 23.5 µM [cytotoxic, single point] | 
NC(=O)c1nnn(Cc2cc(Cl)c(C(=O)c3ccc(Cl)cc3)c(Cl)c2)c1N | inconclusive: 29.6 µM [cytotoxic, single point] | 
Cc1ccc(/C=N/NC(=O)c2ccccc2Oc2ccccc2)o1 | inconclusive: 14.8 µM [cytotoxic, partial curve] | 
COc1cc(NC(=O)c2ccc(-c3ccc(Cl)cc3)o2)cc(OC)c1 | active: 7.43 µM | 

Structure (SMILES) | Potency | activity change, negative = cytotoxic
O=C1NC(=O)C(=Cc2ccc3c(c2)OC(F)(F)O3)S1 | inconclusive: 29.6 µM [cytotoxic, single point] | 
NC(=O)[C@@H](CCC(F)(F)F)N(Cc1ccc(-c2ncon2)cc1F)S(=O)(=O)c1ccc(Cl)cc1 | inconclusive: 14.8 µM [cytotoxic, partial curve] | 
COC(=O)N[C@H](C(=O)N1CCC[C@@H]1c1ncc(-c2ccc(-c3ccc(-c4cnc([C@@H]5CCCN5C(=O)[C@@H](NC(=O)OC)C(C)C)[nH]4)cc3)cc2)[nH]1)C(C)C | inconclusive: 37.2 µM [cytotoxic, single point] | 
Nc1nc(OCc2ccccc2)c2[nH]cnc2n1 | active: 18.7 µM | 
O=C(CCc1ccc(O)cc1)c1c(O)cc(O)cc1O | inconclusive: 0.0469 µM [cytotoxic, full curve] | 
NC(=O)c1ccc2nc(-c3ccc(Oc4ccc(Cl)cc4)cc3)[nH]c2c1 | inconclusive: 23.5 µM [cytotoxic, partial curve, poor fit] | 
C[C@H](NC(=O)Cc1cc(F)cc(F)c1)C(=O)N[C@H](C(=O)OC(C)(C)C)c1ccccc1 | inconclusive: 7.43 µM [cytotoxic, partial curve] | 
N#Cc1ccc(Oc2ccc3c(c2)COB3O)cc1 | inactive | 
O=C(C=Cc1cccnc1)NCCCCC1CCN(C(=O)c2ccccc2)CC1 | inconclusive: 0.0093 µM [cytotoxic, full curve, poor fit] | 
CC[C@H]1OC(=O)[C@H](C)[C@@H](O[C@H]2C[C@@](C)(OC)[C@@H](O)[C@H](C)O2)[C@H](C)[C@@H](O[C@@H]2O[C@H](C)C[C@H](N(C)C)[C@H]2O)[C@](C)(O)C[C@H](C)C(=NOCOCCOC)[C@H](C)[C@@H](O)[C@]1(C)O | inactive | 
Nc1ncnc2c1ncn2[C@@H]1O[C@H](CO)C[C@@H]1O | inconclusive: 5.9 µM [cytotoxic, full curve] | 
C[C@]12CC[C@@H]3c4ccc(O)cc4CC[C@H]3[C@H]1C[C@@H](O)[C@H]2O | inconclusive: 7.43 µM [cytotoxic, full curve] | 
COc1cc([C@@H]2c3cc4c(cc3[C@H](O)[C@H]3COC(=O)[C@H]23)OCO4)cc(OC)c1OC | active: 84.1 nM and active: 1 nM | 
COc1cccc([C@@H](C)NCCCc2ccccc2Cl)c1 | inconclusive: 37.2 µM [cytotoxic, single point] | 
CCOC(=O)N[C@@H]1CC[C@@H]2[C@@H](C1)C[C@H]1C(=O)O[C@H](C)[C@H]1[C@@H]2C=Cc1ccc(-c2cccc(F)c2)cn1 | inconclusive: 23.5 µM [cytotoxic, single point] | 
Cc1cc(C(=O)NOCCO)c(Nc2ccc(I)cc2F)n(C)c1=O | inconclusive: 1.48 µM [cytotoxic, full curve, poor fit] | 
CC(C)(C)C(=O)Oc1ccc2c(c1)nc(NC(=O)c1cccc([N+](=O)[O-])c1)n2CCCO | active: 11.8 µM | 
Cc1ncc([N+](=O)[O-])n1CC(C)O (stereo not given) | inconclusive: 29.6 µM [cytotoxic, single point] | 
Nc1ccn([C@@H]2O[C@H](CO)[C@@H](O)[C@H]2O)c(=O)n1 | active: 0.0235 µM | 
O=C(Nc1ccccc1Br)N[C@@H]1CCN(c2ccc(C(F)(F)F)cn2)C1 | inconclusive: 9.35 µM [cytotoxic, full curve] | 
